PubChem BioAssay AID485281 (National Center for Advancing Translational Sciences (NCATS), 2010)
Hit rate of the full screen: of about 350,000 compounds, about 260 (0.074%) were called active. Inconclusive means that the source gave no clear call. Such entries were picked first, then a sample of the others. Calls follow the shape of the dose curve; as a rule, active = well fitted inhibition curve with a large enough effect; inconclusive = small, poorly fitted or top-dose-only effect; inactive = no such curve, though single readings can be large or run the other way. Potencies of inconclusive entries are doubtful fits and often do not repeat.

What follows are compounds tested against Ferritin light chain (Equus caballus) (UniProt P02791) (assay: qHTS Assay for Identification of Novel General Anesthetics). Details: apoferritin/1-aminoanthracene competitive binding, fluorescence; series mostly up to 77.5 µM.
Sequence of UniProt P02791 (P02791 whole entry, looked up): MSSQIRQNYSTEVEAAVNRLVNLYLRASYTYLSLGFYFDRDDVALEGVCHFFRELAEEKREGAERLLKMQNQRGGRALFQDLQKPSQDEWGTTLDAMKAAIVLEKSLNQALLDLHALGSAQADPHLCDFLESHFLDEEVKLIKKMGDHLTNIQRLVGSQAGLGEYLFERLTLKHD
How it was run: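 Steps: apoferritin (10 uM) was premixed with half-saturated 1-AMA in PBS, compounds were pin-transferred, plates stood 10 min at room temperature, fluorescence was read at 380/535 nm, and curves were fitted with a Hill equation.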
Also: nearly all actives have a fitted effect of over 20% in size.
Potency is read from the fitted curve at half-maximal effect; tags tell the direction and shape of the fitted curve.

SMILES	Potency
Cc1ccc2nc(-c3ccc(NC(=O)COC(=O)c4ccco4)cc3)sc2c1	inactive
Cc1ccc(C)c(NC(=O)CN2C(=O)C3(SCC(=O)N3c3ccc(C)c(C)c3)c3ccccc32)c1 (configuration not stated)	inconclusive: 5.62 µM [inhibitor, full curve, poor fit]
O=C(/C=C/c1ccccc1)C1=C(O)C(=O)N(CCO)C1c1ccc2c(c1)OCO2 (configuration not stated)	inactive
CCCCOc1ccc(C(=O)Nc2ccc(S(=O)(=O)Nc3nc(C)cc(C)n3)cc2)cc1	inconclusive: 15.8 µM [inhibitor, partial curve]
COc1cc(C)ccc1OCc1cc(C(=O)NC(C)Cn2cncn2)no1 (configuration not stated)	inactive
Cc1ccc(NC(=O)c2noc3c2CCC3)cc1C	inconclusive: 8.91 µM [inhibitor, partial curve]
Cc1cc(C(=O)NCc2ccccc2)no1	inconclusive: 35.5 µM [inhibitor, partial curve]
Cc1c(C)c(C)c2[nH]c(-c3ccc4c(c3)OCO4)nc2c1C	inconclusive: 50.1 µM [inhibitor, single point]
OCC1(Cc2cccc(C(F)(F)F)c2)CCN(Cc2cc3ccccc3o2)CC1	inconclusive: 39.8 µM [inhibitor, single point]
CCN(CC)CCC[C@H](C)Nc1c2ccc(Cl)cc2nc2ccc(OC)cc12	inactive
CCCCOc1ccc(C2/C(=C(\O)c3ccc4c(c3)OCCO4)C(=O)C(=O)N2CCCN2CCOCC2)cc1 (configuration not stated)	inconclusive: 31.6 µM [inhibitor, single point]
CSCCC(NC(=O)c1ccc([N+](=O)[O-])cc1Cl)C(=O)OCC(=O)C12CC3CC(CC(C3)C1)C2 (configuration not stated)	inconclusive: 28.2 µM [inhibitor, partial curve, poor fit]
N#Cc1ccccc1Cn1c(=O)n(CCCC(=O)NCc2ccccc2Cl)c(=O)c2ccccc21	inactive
Cn1cc(Br)c(C(=O)NC2C3CC4CC(C3)CC2C4)n1 (configuration not stated)	inconclusive: 10 µM [inhibitor, partial curve]
Cc1ccc(OCC(=O)Nc2ccc(-c3nc4ncccc4o3)cc2)c(C)c1	inactive
CCc1nnc(SCc2cccc(F)c2)c2cc3sc(C)cc3n12	inactive
O=C(CSc1ccsc1[N+](=O)[O-])Nc1cc(F)ccc1F	inconclusive: 15.8 µM [inhibitor, partial curve]
Cn1c(C(=O)N2CCCc3ccccc32)cc2sccc21	active: 12.6 µM
COc1nn(C(C)C(=O)N2N=C(C(F)F)CC2(O)C(F)F)cc1[N+](=O)[O-] (configuration not stated)	inactive
CC(C)Cn1c(N)c(C(=O)CSc2ccc3c(c2)OCCO3)c(=O)n(C)c1=O	inactive
Cc1cc(C)cc(NC(=O)N2CCNC(=O)C2CC(=O)Nc2cc(Cl)ccc2Cl)c1 (configuration not stated)	inconclusive: 15.8 µM [inhibitor, partial curve]
CCOC(=O)Nc1nc(-c2ccccc2)c(C(=O)c2ccc(Cl)cc2)s1	inconclusive: 25.1 µM [inhibitor, partial curve]
C=CCn1c(C)cc(C(=O)COC(=O)c2ccc3c(c2)NC(=O)CS3)c1C	inconclusive: 31.6 µM [inhibitor, partial curve]
CC(OC(=O)C1CC1)C(=O)Nc1ccc([N+](=O)[O-])cc1Cl (configuration not stated)	inconclusive: 25.1 µM [inhibitor, single point]

SMILES	Potency
O=C(Cn1cc(C(F)(F)F)ccc1=O)N/N=C/c1cccc(Cl)c1	inconclusive: 20 µM [inhibitor, partial curve]
Clc1cccc(Cl)c1/C=C/c1ccn[nH]1	inconclusive: 31.6 µM [inhibitor, single point]
CC(=O)NCCn1c(SCc2ccc(C)cc2C)nc2ccccc2c1=O	inconclusive: 10 µM [inhibitor, partial curve]
CC(=O)CCS(=O)(=O)c1ccc(NC(C)=O)cc1	inactive
CCn1c(=O)c2cc(C(=O)NCCCN3CCN(c4ccc(F)cc4)CC3)sc2c2ccccc21	inactive
O=S(Cc1ccc(Br)cc1)Cc1nnc(SCc2c(Cl)cccc2Cl)n1-c1ccccc1 (configuration not stated)	inactive
CCOC(=O)c1c(-c2cccc([N+](=O)[O-])c2)cn2ccccc12	inconclusive: 35.5 µM [inhibitor, partial curve]
CCc1ccc2[nH]c(=O)c(CN(CCN(CC)CC)C(=S)NCc3ccco3)cc2c1	inconclusive: 28.2 µM [inhibitor, partial curve]
Cc1ccc(C2=NS(=O)(=O)N(C)C(C(=O)NCc3ccccc3)=C2)cc1	inconclusive: 22.4 µM [inhibitor, partial curve]
Cc1ccc(C(=O)NCC(=O)N2CCC3(CC2)NCCc2[nH]cnc23)cc1C	inactive
Cc1ccc(/C=N/NC(=O)CNC(=O)c2ccc(C)c([N+](=O)[O-])c2)o1	inconclusive: 14.1 µM [inhibitor, partial curve]
CCCOc1ccc2cc(C(=O)NCc3ccccc3)c(=O)oc2c1	inactive
CCOc1ccc(C(=O)n2cnnc2N)cc1	inactive
CC(C)(C)SCCNS(=O)(=O)c1ccc2ccccc2c1	inconclusive: 25.1 µM [inhibitor, partial curve]
O=C(Nc1cc([N+](=O)[O-])ccc1N1CCCC1)c1cccs1	inconclusive: 35.5 µM [inhibitor, partial curve]
COc1ccc(C)cc1NC(=O)c1c2c(nc3ccccc13)C(=O)N(C1CCCCC1)C2	inconclusive: 39.8 µM [inhibitor, single point]
CCSc1nc2ccccc2n1CCOc1ccccc1	inactive
Cc1ccc(NS(=O)(=O)c2ccc3c(c2)CC(=O)N3)cc1Cl	inconclusive: 31.6 µM [inhibitor, partial curve]
C/C(O)=C/c1nc2ccccc2[nH]c1=O	inactive
O=C(O)C1CCCCC1C(=O)Nc1ccccc1Cl (configuration not stated)	inconclusive: 35.5 µM [inhibitor, single point]
CCNC(=O)OCCC12CC3CC(CC(C3)C1)C2	inconclusive: 7.94 µM [inhibitor, partial curve]
O=C(OCc1c(Cl)cccc1Cl)c1cccnc1Cl	inconclusive: 31.6 µM [inhibitor, partial curve]
Oc1cccc(/C=N/N=C/c2cccc(O)c2O)c1O	inconclusive: 35.5 µM [inhibitor, single point]
CC(=O)c1sc(Nc2cccc(C)c2)nc1C	inconclusive: 25.1 µM [inhibitor, partial curve]

SMILES	Potency
CCc1nc2ccccc2c(C(=O)OCCN2C(=O)c3ccccc3C2=O)c1C	inconclusive: 39.8 µM [inhibitor, single point]
O=C(CNC(=O)c1ccccc1Br)N/N=C/c1cc(Br)ccc1O	inconclusive: 7.08 µM [inhibitor, full curve]
O=C(NCCN1C(=O)S/C(=C\c2ccccc2F)C1=O)C1CCCN1C(=O)c1cccs1 (configuration not stated)	inconclusive: 35.5 µM [inhibitor, partial curve]
NC(=S)Cc1nc(-c2ccc(Cl)cc2)cs1	inactive
C#CCOc1ccccc1CNc1ccccc1	inconclusive: 50.1 µM [inhibitor, single point]
Cc1cc(C)cc(NC(=O)CSc2ccc(-c3ccco3)nn2)c1	inconclusive: 28.2 µM [inhibitor, single point]
C/C(=N\N=C1\NC(=O)C(Cc2ccccc2)S1)c1ccccc1 (configuration not stated)	inconclusive: 35.5 µM [inhibitor, partial curve]
CCOc1ccc2c(c1)C(C)=CC(C)(C)N2	inactive
CCN(CC)CCCNC(=O)CSc1nc2c(c(C(F)(F)F)n1)CCc1ccccc1-2	inconclusive: 17.8 µM [inhibitor, partial curve]
CC(=O)c1cccc(OCc2cc(C(=O)NCc3nc(C)c(C)s3)no2)c1	inconclusive: 22.4 µM [inhibitor, partial curve]
CC(=O)Nc1sc2c(c1C(c1cccs1)N1CCOCC1)CCCC2 (configuration not stated)	inactive
Oc1c(C(c2ccccc2)N2CCOCC2)sc2nc(-c3ccco3)nn12 (configuration not stated)	inactive
CS(=O)(=O)c1ccc(Sc2nc3ccccc3s2)c([N+](=O)[O-])c1	inactive
Cc1cc(/C=C2\C(=N)N3N=C(c4ccco4)SC3=NC2=O)c(C)n1Cc1ccccc1	inconclusive: 25.1 µM [inhibitor, partial curve, poor fit]
COc1ccc(OC)c(-c2nnc(-c3ccc(C)o3)o2)c1	inactive
CCC1(C)Cc2c(sc3nnn(Cc4ccccc4Cl)c(=O)c23)CO1 (configuration not stated)	inconclusive: 14.1 µM [inhibitor, partial curve]
O=C(NCc1cccnc1)c1ccc(COc2cccc3ccccc23)o1	inconclusive: 31.6 µM [inhibitor, partial curve]
Cc1noc(C)c1CN1C(=O)NC2(CCCCCCC2)C1=O	inconclusive: 17.8 µM [inhibitor, partial curve]
CCOC(=O)CSc1cc(CS(=O)c2ccc(Cl)cc2)nc(-c2ccccc2)n1 (configuration not stated)	inconclusive: 7.94 µM [inhibitor, partial curve]
O=C(N/N=C/c1ccc2c(c1)OCO2)c1ccc(Br)o1	inactive
COc1ccc(C2=C(C)C(=O)N(Cc3ccc(C(=O)NC(C)c4ccccc4)cc3)S2(=O)=O)cc1 (configuration not stated)	inconclusive: 5.62 µM [inhibitor, partial curve]
N#Cc1cnc(SCC(=O)Nc2ccccc2C(F)(F)F)nc1N	inactive
NC(=O)c1cc(Br)cc(C2CCCCC2)c1O	inconclusive: 44.7 µM [inhibitor, single point]
N#CCCN1CCN(C(=S)c2ccc(-c3cccc(Cl)c3)o2)CC1	inconclusive: 44.7 µM [inhibitor, partial curve, poor fit]
